Experimental data taken from PubChem BioAssay AID686978 (National Center for Advancing Translational Sciences (NCATS), 2013).
Several values for one entry are separate records, joined by “and”; a condition that tells them apart may be missing. Equal entries are not always repeated. About 64,000 (15%) of roughly 420,000 compounds were called active. The shares of active, inactive and inconclusive entries below differ from those in the screen. The call rests on the fitted dose curve; in most records, active means well fitted inhibition curve with a large enough effect; inconclusive means small, poorly fitted or top-dose-only effect; inactive means flat fitted curve, though single readings scatter. Potencies of inconclusive entries are left out as doubtful fits.

Experiment: qHTS for Inhibitors of human tyrosyl-DNA phosphodiesterase 1 (TDP1): qHTS in cells in absence of CPT; further: nearly all actives have a fitted effect of over 55% in size
Settings: DT40 Tdp1-/- hTDP1 cells, no CPT, ATP luminescence, 48 h; activity change, negative = growth inhibition: at 46.2 µM (top of the series)
Summary of the method: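 Seeded 400 DT40-hTDP1 cells/well (vehicle DMSO, no 20 nM CPT); pinned compounds; ≥48 hr at 37 °C; CellTiter-Glo luminescence as viability measure.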
On the % scale 0 is the no-effect control and ±100 the full control effect; potency means the concentration at half of the fitted maximal effect; tags describe the fitted curve by direction and shape.

Compound	Potency	activity change, negative = growth inhibition
COc1ccccc1N1CCN(c2nc3ccccc3nc2C(C#N)C(=O)OC(C)C)CC1 (stereo not given)	active: 20.6 µM	
COCCn1c(C)cc(/C=C(\C#N)C(=O)OCC(=O)Nc2ccc(S(N)(=O)=O)cc2)c1C		inactive: -23.9%
O=C(O)c1ccc(Cn2cnc3c(=S)nc[nH]c32)cc1		inactive: 3.13%
Fc1ccccc1CNC(=S)NC1CCCCC1		inactive: -0.5%
Cc1ccc(C(=O)COC(=O)c2cnccn2)cc1[N+](=O)[O-]		inactive: -16.6%
CCC(C)c1ccc(S(=O)(=O)N2CCN(C(=O)COc3ccc4c(C)cc(=O)oc4c3)CC2)cc1 (stereo not given)	active: 14.6 µM	
CCN(CC)C(=O)C1=C(C)N(CCCOC)C(=O)C(CC(=O)NCc2cccc3ccccc23)C1 (stereo not given)		inactive: -23.3%
Cc1ccc(C(=O)Nc2sc(C(=O)N(C)C)c(C)c2C#N)cc1	inconclusive [inhibitor, single point]	
CCN(CC)C(=O)c1cc2c(=O)n3cccc(C)c3nc2n1C	inconclusive [inhibitor, single point]	
Cc1ccccc1/C=C\c1nc(O)c([N+](=O)[O-])c(=O)[nH]1		inactive: 1.57%
COC(=O)C(NC(=O)c1ccccc1)=C(C)C	inconclusive [inhibitor, single point]	
O=C(NCCNC1CCC(c2ccccc2)CC1)c1cccs1 (stereo not given)	inconclusive [inhibitor, single point]	
COc1cc2c(cc1OC)CN(c1ccc([N+](=O)[O-])cc1C#N)CC2	active: 13 µM	
Cc1ccccc1Cc1nc2cccnc2n1C1CCN(C(=O)CC2NC(=O)c3ccccc32)CC1 (stereo not given)	inconclusive [inhibitor, single point]	
CCCn1c2ccccc2c2cnn(CC(=O)NC3CCCC(C)C3C)c(=O)c21 (stereo not given)	active: 2.06 µM	
Cc1ccc(C2(c3noc(CN4C[C@@H](C)O[C@@H](C)C4)n3)CCCC2)cc1	inconclusive [inhibitor, single point]	
O=C(c1ccccc1)c1c[nH]c(C(=O)NNc2ccccc2)c1		inactive: -16.1%
Oc1ccc(C[C@@H](CN2CCCC2CN2C(=S)NC[C@@H]2Cc2ccccc2)N2C[C@H](Cc3ccccc3)N(CC3CCCCC3)C2=S)cc1 (stereo not given in full)	active: 20.6 µM	
Cc1cc(=O)[nH]c(NN=C2CCCCC2C)n1 (stereo not given)	active: 18.4 µM	
CCCn1c(=O)c(-c2nc3ccccc3[nH]2)c(O)c2ccccc21	inconclusive [inhibitor, partial curve]	
Cc1ccc(NC(=O)CNc2cc(S(=O)(=O)N3CCOCC3)ccc2N2CCOCC2)cc1S(=O)(=O)N(C)C	inconclusive [inhibitor, partial curve]	
CC(C)C(=O)N1CCN(c2ccccc2NC(=S)NC(=O)/C=C/c2ccco2)CC1	inconclusive [inhibitor, single point]	
CC(=O)Nc1ccc(-c2ccnc3c2CC(C(=O)Nc2ccccc2)O3)cc1 (stereo not given)	active: 5.8 µM	
Cc1ccc(Nc2nc3nonc3[nH]c2=O)cc1C	inconclusive [inhibitor, single point]	

Compound	Potency	activity change, negative = growth inhibition
CCOC(=O)c1sc(Nc2ccc(F)cc2)nc1C	inconclusive [inhibitor, single point]	
CCc1ccc(NC(=O)CCc2c(C)n(C)c3cc(-c4ccccc4C)nn3c2=O)cc1		inactive: -28%
CCc1nc(N2CCN(C(=O)c3ccco3)CC2)c(C#N)c2c1COC(C)(C)C2	inconclusive [inhibitor, single point]	
Cc1csc(NC(=O)c2cccc(S(=O)(=O)N3CCCCC3)c2)n1	inconclusive [inhibitor, single point]	
O=C(/C=C/c1ccc(F)cc1)NC(=S)NNC(=O)c1cnccn1	active: 3.26 µM	
Cc1ccc(OCC(=O)Nc2ccc(N3CCN(C(=O)c4ccco4)CC3)cc2)cc1C	inconclusive [inhibitor, single point]	
O=C(CCNC(=O)c1ccccc1)OCC(=O)c1ccccc1		inactive: 2.02%
NNC(=O)c1nc[nH]c1C(=O)Nc1ccccc1[N+](=O)[O-]	inconclusive [inhibitor, single point]	
Cc1ccc(NS(=O)(=O)c2ccc(C(=O)NCc3ccc(S(N)(=O)=O)cc3)cc2)cc1	inconclusive [inhibitor, single point]	
COC(=O)CSc1nc(C)cc(C)n1	inconclusive [inhibitor, single point]	
COc1ccc(S(=O)(=O)N(C)C[C@H]2Oc3ccc(NC(=O)Nc4ccccc4)cc3C(=O)N([C@H](C)CO)C[C@@H]2C)cc1	inconclusive [inhibitor, single point]	
CCOP(=O)(NC12CC3CC(CC(C3)C1)C2)NC12CC3CC(CC(C3)C1)C2	inconclusive [inhibitor, single point]	
Cc1sc2ncnc(Sc3nnnn3-c3ccccc3)c2c1C	active: 3.98 µM and active: 7.08 µM	
COc1cccc(N=C2SC(C(=O)Nc3cccc(Cl)c3)CC(=O)N2C)c1 (stereo not given)	inconclusive [inhibitor, single point]	
CCN1CCN(C(=O)CCc2ccc(S(=O)(=O)NCCc3ccccc3)cc2)CC1	inconclusive [inhibitor, single point]	
CCOC(=O)c1cnc2c(ccc3ccccc32)c1Nc1ccc(OC)cc1OC	inconclusive [inhibitor, single point]	
CN(C(=O)c1ccc(S(=O)(=O)c2cccc(Cl)c2)c([N+](=O)[O-])c1)C1CCCCC1	active: 5.17 µM	
CC(=O)c1c(C)[nH]c(C(=O)COC(=O)c2c(C)noc2C)c1C	inconclusive [inhibitor, single point]	
COc1ccc(C(=O)c2c(N)c(-c3nc(-c4ccccc4)cs3)c3ccccn23)cc1	inconclusive [inhibitor, partial curve]	
O=C(C1CCN(S(=O)(=O)c2c(Cl)cccc2Cl)CC1)N1CCCCCCC1	inconclusive [inhibitor, single point]	
Cc1nc(-c2ccccc2)sc1-c1nc(-c2ccncc2)ncc1S(=O)(=O)c1ccccc1	inconclusive [inhibitor, single point]	
CC(=O)c1ccc(OCCCC(=O)NCCc2ccc(C(F)(F)F)cc2)cc1		inactive: -22.5%
CC(C)C[C@H]1CN(CCCC[C@@H]2CNC(=O)C(=O)N2CC2CCCCC2)C(=O)C(=O)N1CCc1ccccc1		inactive: -15%
Cc1cc(OCC(=O)Nc2cc(S(=O)(=O)N3CCOCC3)ccc2N2CCCC2)ccc1C(C)C	active: 8.2 µM	

Compound	Potency	activity change, negative = growth inhibition
CC1(C)C(=O)Nc2ccccc2N1C(=O)COc1cccnc1[N+](=O)[O-]		inactive: -22.8%
CN(C)C(=O)c1ccc2c(c1)C1C3CCC(C3)C1C(c1ccccc1)N2 (stereo not given)	active: 18.4 µM	
CSc1ncc(C(=O)N2CCN(c3ccc(Cl)cc3)CC2)c(C)n1	inconclusive [inhibitor, single point]	
Cc1onc(-c2ccccc2Cl)c1C(=O)N(C)Cc1ccccc1	inconclusive [inhibitor, partial curve, poor fit]	
COc1ccc(Br)cc1CN1CCN(C(=O)c2ccco2)CC1	inconclusive [inhibitor, single point]	
COC(=O)c1ccccc1COc1cccn2c(N(C)C(=O)CCC3CCCC3)c(C)nc12	inconclusive [inhibitor, single point]	
CCOC(=O)C1=C(O)C(Nc2nc3ccccc3s2)(C(F)(F)F)N=C1C (stereo not given)	inconclusive [inhibitor, partial curve]	
Cc1c(N2C(=O)/C(=C/c3cccc4ccccc34)SC2=S)c(=O)n(-c2ccccc2)n1C		inactive: -16.8%
O=C(O)c1cc(N2C(=O)C=CC2=O)cc(N2C(=O)C=CC2=O)c1		inactive: -0.489%
CC(C)[C@H](NS(=O)(=O)c1ccc2c(c1)OCCO2)C(=O)OCC(=O)Nc1cccc(Cl)c1Cl	inconclusive [inhibitor, single point]	
O=C(NCCC1=CCCCC1)C1CCC(=O)N(Cc2cccc(C(F)(F)F)c2)C1 (stereo not given)	inconclusive [inhibitor, single point]	
COc1cc(C(=S)N2CCCC2)ccc1OS(=O)(=O)c1ccc(NC(C)=O)cc1	inconclusive [inhibitor, partial curve, poor fit]	
Cn1cccc1C(=O)NC(=O)COC(=O)CNC(=O)c1ccc(Cl)cc1Cl		inactive: -16.7%
COC(=O)Cc1ccc(NC(=O)c2ccc(C)c(C)c2)cc1		inactive: -5.14%
COc1cccc(C(=O)NNC(=O)C2CCCO2)c1 (stereo not given)		inactive: -2.74%
COc1cc(C(=O)NC(CCSC)C(=O)OCc2cc([N+](=O)[O-])cc3c2OCOC3)cc(OC)c1OC (stereo not given)	inconclusive [inhibitor, single point]	
CCOc1ccccc1N(CC(=O)Nc1c(C)n(C)n(-c2ccccc2)c1=O)S(=O)(=O)c1ccccc1		inactive: -2.81%
COc1ccc(C)cc1NC(=O)c1oc2ccc(S(=O)(=O)N3CCOCC3)cc2c1C		inactive: -2.78%
CCOc1ccc(/C=C2\CCc3ccccc3C2=O)cc1	inconclusive [inhibitor, single point]	
CSc1cccc(NC(=O)CC(c2ccc(F)cc2)N2Cc3ccccc3C2=O)c1 (stereo not given)	active: 20.6 µM	
COc1ccc(OC)c(NC(=O)CSC2=Nc3ccccc3C3=NC(CCC(=O)NC4CCCCC4)C(=O)N23)c1 (stereo not given)		inactive: -27.5%
COc1ccc2nc(NNC(=O)C3COc4ccccc4O3)sc2c1 (stereo not given)	inconclusive [inhibitor, single point]	
